# According to article PMC4336329 (PLoS ONE, 2015):
# Among all 310,000 compounds or so, about 14,000 (4.5%) showed an effect of 50% or more. The effect is printed as a negative number. The list shows a part of the results.
# Biological target: human ether-à-go-go-related gene (hERG) potassium channel (human, UniProt Q12809)
# Experiment: primary screen, population patch clamp on CHO cells stably expressing hERG
# 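Note: peak tail current of the secondary pulse compared with the same well before compound.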
# Sequence of human ether-à-go-go-related gene (hERG) potassium channel (Q12809 whole entry, looked up): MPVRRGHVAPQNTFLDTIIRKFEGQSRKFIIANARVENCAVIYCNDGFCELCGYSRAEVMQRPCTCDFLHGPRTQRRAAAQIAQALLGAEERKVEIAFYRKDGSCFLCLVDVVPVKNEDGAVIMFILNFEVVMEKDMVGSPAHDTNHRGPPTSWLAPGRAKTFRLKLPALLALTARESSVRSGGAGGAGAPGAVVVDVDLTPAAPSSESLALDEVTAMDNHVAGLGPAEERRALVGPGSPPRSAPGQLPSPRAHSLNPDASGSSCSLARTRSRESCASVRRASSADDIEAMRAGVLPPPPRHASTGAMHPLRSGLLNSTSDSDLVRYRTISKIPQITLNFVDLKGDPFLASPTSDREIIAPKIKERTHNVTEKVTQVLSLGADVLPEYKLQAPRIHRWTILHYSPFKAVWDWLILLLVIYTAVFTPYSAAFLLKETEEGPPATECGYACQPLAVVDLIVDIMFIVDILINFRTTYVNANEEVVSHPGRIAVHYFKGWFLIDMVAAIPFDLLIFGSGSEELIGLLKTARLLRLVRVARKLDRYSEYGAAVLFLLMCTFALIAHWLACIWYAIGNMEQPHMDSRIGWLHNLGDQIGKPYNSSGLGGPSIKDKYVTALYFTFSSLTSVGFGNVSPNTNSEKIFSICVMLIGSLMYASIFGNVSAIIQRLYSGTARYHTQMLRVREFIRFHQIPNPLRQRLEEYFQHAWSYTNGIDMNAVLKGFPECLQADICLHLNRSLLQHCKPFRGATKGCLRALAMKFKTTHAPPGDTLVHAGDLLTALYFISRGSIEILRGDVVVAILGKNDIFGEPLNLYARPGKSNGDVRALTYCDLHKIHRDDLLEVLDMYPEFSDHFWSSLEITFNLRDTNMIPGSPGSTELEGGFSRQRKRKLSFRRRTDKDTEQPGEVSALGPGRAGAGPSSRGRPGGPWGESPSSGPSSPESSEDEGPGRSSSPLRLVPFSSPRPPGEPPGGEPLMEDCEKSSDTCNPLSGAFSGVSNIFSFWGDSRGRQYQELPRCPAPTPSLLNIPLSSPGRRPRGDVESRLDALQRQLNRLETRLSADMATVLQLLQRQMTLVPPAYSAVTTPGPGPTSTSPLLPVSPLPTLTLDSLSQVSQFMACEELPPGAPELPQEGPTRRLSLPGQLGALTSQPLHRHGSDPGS
row,Compound,"hERG current change (%, negative = inhibition) at 10uM [%]"
1,O=C(c1cn(Cc2ccccc2)nc1-c1ccc(Cl)cc1)N1CCN(c2ccccn2)CC1,-26.4
2,O=S(=O)(Nc1ccc(-n2cnnn2)cc1)c1cccs1,6.07
3,CC(COS(N)(=O)=O)Cc1ccc(C(F)(F)F)cc1 (centres unmarked),-1.35
4,Cc1c(C(=O)NC(C)C)oc2c1-c1[nH]ncc1CC2,8.11
5,CC(C)N1CCN(Cc2nc3ccccc3s2)CC1CCO (centres unmarked),-37.6
6,COc1ccccc1/C=C1\C(=O)NC(=S)N(c2ccccc2)C1=O,22.4
7,Cc1ccccc1NC(=O)CSc1nnc2ccc(-c3ccncc3)nn12,-69.5
8,O=C(Nc1cccc(NC(=O)C2CCCO2)c1)C1CCCO1 (centres unmarked),5.42
9,CCn1c(CSCc2ccc(C)cc2)n[nH]c1=S,23
10,Cc1onc(-c2c(F)cccc2Cl)c1C(=O)Nc1cccc(S(=O)(=O)NC2=NCCC2)c1,-6.81
11,CC1C/C(=N/N=C2/NC(=O)CS2)CC(C)(C)C1 (centres unmarked),-6.47
12,O=C(Nc1ccc(Br)cc1C(=O)O)c1ccc2c(c1)C(=O)N(Cc1ccccc1)C2=O,7.86
13,COc1cc(CNCCNC(=O)c2cccs2)cc(OC)c1OC,2.62
14,Cc1cc([N+](=O)[O-])nn1CC(=O)NCCCN1CCOCC1,-1.72
15,CCCCN(CC)S(=O)(=O)c1c(C)[nH]c(=O)[nH]c1=O,19
16,Cc1ccc(-c2n[nH]c(=S)n2/N=C/c2ccc(C(=O)O)cc2)cc1,3.02
17,NC(=O)Cn1nc([N+](=O)[O-])nc1Oc1ccccc1F,17
18,Cc1ccc(S(=O)(=O)N2CCOCCOCCOCCOCCOCC2)cc1,-5.65
19,COc1ccc2nc(SCC(C)=O)c(C#N)cc2c1,14.7
20,CC(C)OCCCn1c(NN)nc2ccccc2c1=O,8.08
21,CCOC(=O)N1CCN(C(=O)c2cc3cc(F)ccc3[nH]2)CC1,-19.8
22,CCOC(=O)c1ccc2[nH]c(C)cc(=O)c2c1,5.02
23,O=C(Nc1cccnc1)c1ccc(Cl)c(S(=O)(=O)N2CCCC2)c1,11.2
24,Cc1[nH]c(=O)[nH]c(=O)c1S(=O)(=O)N1CCCC(C(=O)NCc2ccco2)C1 (centres unmarked),-13.8
25,C=CCn1c(C)cc(C(=O)COC(=O)/C=C/c2c(C)nn(C3CCS(=O)(=O)C3)c2Cl)c1C (centres unmarked),4.62
26,CCCCN(C)/C=N/c1c(C#N)cnn1-c1ccc(C)cc1,-27.9
